{"source": "paper PMC6919601", "about": "“Identification of Plasmodium dipeptidyl aminopeptidase allosteric inhibitors by high throughput screening” (PLoS ONE, 2019)", "note": "Hit rate of the full screen: of about 110,000 compounds, about 230 (0.21%) showed an effect of 50% or more. The list shows a part of the results.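 Further: 30 min substrate incubation versus DMSO and 10 µM JCP410 controls.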"}
{"target": "DPAP1 (Plasmodium falciparum, UniProt Q8IIJ9)", "sequence (Q8IIJ9 whole entry, looked up)": "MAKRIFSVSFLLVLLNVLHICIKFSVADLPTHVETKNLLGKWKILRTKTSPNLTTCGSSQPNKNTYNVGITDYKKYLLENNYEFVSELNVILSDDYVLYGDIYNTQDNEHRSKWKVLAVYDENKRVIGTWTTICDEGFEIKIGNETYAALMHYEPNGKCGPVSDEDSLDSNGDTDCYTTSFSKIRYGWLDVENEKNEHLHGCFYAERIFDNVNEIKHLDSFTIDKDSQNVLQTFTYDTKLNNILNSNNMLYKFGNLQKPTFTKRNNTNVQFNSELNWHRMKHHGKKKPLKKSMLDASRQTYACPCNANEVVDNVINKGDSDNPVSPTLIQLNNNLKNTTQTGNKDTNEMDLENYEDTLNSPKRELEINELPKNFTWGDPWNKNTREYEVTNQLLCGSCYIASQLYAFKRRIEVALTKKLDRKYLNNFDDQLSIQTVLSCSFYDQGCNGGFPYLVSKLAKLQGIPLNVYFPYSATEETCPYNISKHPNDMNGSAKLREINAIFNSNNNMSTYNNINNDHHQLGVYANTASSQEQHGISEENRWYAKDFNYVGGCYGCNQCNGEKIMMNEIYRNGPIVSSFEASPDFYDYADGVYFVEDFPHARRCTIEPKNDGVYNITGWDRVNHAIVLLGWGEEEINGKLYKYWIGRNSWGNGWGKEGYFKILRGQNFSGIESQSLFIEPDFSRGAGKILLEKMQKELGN", "test": "primary screen, percent inhibition; read by cleavage of a fluorogenic dipeptide substrate; higher = more effect of the substance", "design": "species or system P. falciparum D10 trophozoite lysates; single well", "units": {"% Inhibition @ 10 uM": "%"}}
{"smiles": "O=C(Cn1cnc2ccccc21)c1ccc(Br)cc1", "% Inhibition @ 10 uM": -1.07}
{"smiles": "CC1(C)CC(=O)C2=C(C1)c1c(ccc3ccccc13)NC2c1cccc(F)c1", "note": "(stereo not shown)", "% Inhibition @ 10 uM": -0.436}
{"smiles": "COc1ccc(C2C(C(=O)Nc3ccc(Cl)cc3)=C(C)Nc3ncnn32)c(OC)c1", "note": "(stereo not shown)", "% Inhibition @ 10 uM": 6.63}
{"smiles": "CC1(C)CC(NC(=O)NC2CCCCC2)CC(C)(C)N1", "% Inhibition @ 10 uM": 1.35}
{"smiles": "O=C(NCCCn1ccnc1)c1cc2nc(-c3cccs3)cc(C(F)(F)F)n2n1", "% Inhibition @ 10 uM": 1.58}
{"smiles": "CCc1cc2c3c(c1)C(C)=CC(C)(C)N3C(=O)C2=O", "% Inhibition @ 10 uM": -3.72}
{"smiles": "COc1ccc2c(c1)c(C(C)=O)c(C)n2-c1ccccc1C", "% Inhibition @ 10 uM": 0.132}
{"smiles": "O=C(CCn1c(=O)c2cccn2c2cccnc21)N1CCOCC1", "% Inhibition @ 10 uM": 2.6}
{"smiles": "CC1CCN(C(=O)Cn2ncc3c4ccccc4n(Cc4cccc(Cl)c4)c3c2=O)CC1", "% Inhibition @ 10 uM": -3.35}
{"smiles": "CCCOc1ccc(CSc2nncn2N)cc1", "% Inhibition @ 10 uM": 0.484}
{"smiles": "CN1C(=O)C2Cc3c([nH]c4ccccc34)C(c3cccc(O)c3)N2C1=S", "note": "(stereo not shown)", "% Inhibition @ 10 uM": -3.62}
{"smiles": "Cc1ccc2nc3c(cc(C(=O)NCC4CCCO4)c(=N)n3Cc3cccnc3)c(=O)n2c1", "note": "(stereo not shown)", "% Inhibition @ 10 uM": 1.76}
{"smiles": "O=C1NC(=O)N(CCc2ccc(F)cc2)C(=O)/C1=C/c1cccc2ccccc12", "% Inhibition @ 10 uM": 0.503}
{"smiles": "Cc1c(Cl)cccc1-n1nc(C)c2c(C)cc(=O)n(CC(=O)O)c21", "% Inhibition @ 10 uM": 0.124}
{"smiles": "CCCCN(C)C(=O)C1CCN(C(=O)c2cnn(-c3ccccc3)c2-n2cccc2)CC1", "% Inhibition @ 10 uM": 3.4}
{"smiles": "CC(C)c1ccc(OCC(=O)Nc2ccc(S(=O)(=O)N3CCOCC3)cc2)cc1", "% Inhibition @ 10 uM": -7.09}
{"smiles": "Cc1ccc(Cl)cc1NC(=O)c1cccnc1", "% Inhibition @ 10 uM": 6.1}
{"smiles": "O=C(O)c1c(CNCCc2c[nH]c3ccccc23)c2ccccc2n1Cc1ccccc1F", "% Inhibition @ 10 uM": 3.54}
{"smiles": "O=S(=O)(c1ccc(-c2ccc(O)nn2)s1)N1CCCN(Cc2ccc(F)cc2)C1", "% Inhibition @ 10 uM": 2.09}
{"smiles": "CCCCCCCc1c(C#N)c(N)nc(S)c1C#N", "% Inhibition @ 10 uM": 71.3}
{"smiles": "Cc1ccc(-c2csc(NC(=O)CN3CCCCC3)n2)cc1", "% Inhibition @ 10 uM": 0.431}
{"smiles": "Oc1ccc(-c2csc(-c3ccncc3)n2)cc1O", "% Inhibition @ 10 uM": -10.1}
{"smiles": "COCCN1Cc2cccc(C(=O)N3CCC(N4CCCCC4)CC3)c2C1=O", "% Inhibition @ 10 uM": 1.02}
{"smiles": "COc1ccc(Cn2nnc3c(O)nc(C4CCCN(C(=O)c5ccccc5)C4)nc32)cc1", "note": "(stereo not shown)", "% Inhibition @ 10 uM": 2.54}
{"smiles": "CNc1nc(CC(=O)C2CC2)nc(OC)n1", "% Inhibition @ 10 uM": 2.62}
{"smiles": "CSc1nc(O)cc(=O)n1-c1ccccc1", "% Inhibition @ 10 uM": -2.6}
{"smiles": "COc1cccc(-c2[nH]nc3c2C(c2cccs2)NC3=O)c1", "note": "(stereo not shown)", "% Inhibition @ 10 uM": -3.35}
{"smiles": "COc1cccc(NC(=O)COc2ccc(C)cc2Br)c1", "% Inhibition @ 10 uM": 1.04}
{"smiles": "COc1ccc(C(C)NC(=O)c2ccc(OC)c(OC)c2)cc1", "note": "(stereo not shown)", "% Inhibition @ 10 uM": -8.49}
{"smiles": "O=[N+]([O-])c1ccc(S(=O)(=O)N(Cc2ccccc2)Cc2ccccc2)cc1", "% Inhibition @ 10 uM": -1.8}
{"smiles": "Cc1cc(C(=O)N2CCN(Cc3ccccc3)CC2)on1", "% Inhibition @ 10 uM": 9.05}
{"smiles": "O=C1c2cccc3c(N4CCOCC4)ccc(c23)C(=O)N1CCO", "% Inhibition @ 10 uM": 3.32}
{"smiles": "CCOc1ccc(NC(=O)/C(C#N)=C\\c2c[nH]c3ccccc23)cc1", "% Inhibition @ 10 uM": 2.05}
{"smiles": "O=C(NCCC1=CCCCC1)C1CCN(c2nc3ccccc3n3cccc23)CC1", "% Inhibition @ 10 uM": 6.84}
{"smiles": "O=C1CC(c2ccc(Cl)cc2)c2cc3c(cc2N1)OCO3", "note": "(stereo not shown)", "% Inhibition @ 10 uM": 0.231}
{"smiles": "COC(=O)c1ccccc1-n1cc2c(c1-c1ccc(C(C)(C)C)cc1)c(=O)n(C)c(=O)n2C", "% Inhibition @ 10 uM": 0.366}
{"smiles": "CCCCc1c(O)n2nc(C)ccc2[n+](-c2ccc(C)cc2)c1=O", "% Inhibition @ 10 uM": 2.32}
{"smiles": "CCOC(=O)C1CCN(Cc2ccc(Cl)c(Cl)c2)CC1", "% Inhibition @ 10 uM": 1.2}
{"smiles": "O=C(Nc1nnc(C23C[C@H]4C[C@@H](C2)C[C@@H](C3)C4)s1)C1CCN(C(=O)NC2CCCCC2)CC1", "% Inhibition @ 10 uM": -4.67}
{"smiles": "Cc1cccc(OCCCCCN2CCCC2)c1C", "% Inhibition @ 10 uM": 4.33}
{"smiles": "O=C(NCc1cccnc1)c1csc2c1CCCC2", "% Inhibition @ 10 uM": -1.44}
{"smiles": "c1ccc(Cn2c(CSc3nnnn3-c3ccccc3)nc3ccccc32)cc1", "% Inhibition @ 10 uM": 4.54}
{"smiles": "COc1ccc2ccnc(C3C(=O)c4ccccc4C3=O)c2c1", "% Inhibition @ 10 uM": -2.91}
{"smiles": "CCc1cccc(NC(=O)CCC(=O)Nc2cccc(CC)c2)c1", "% Inhibition @ 10 uM": -7.01}
{"smiles": "COc1ccc2c(c1)-c1nc(NC(=O)C34CC5CC(CC(C5)C3)C4)sc1CC2", "% Inhibition @ 10 uM": -1.92}
{"smiles": "COc1ccc(Nc2oc(COc3ccccc3C)nc2C#N)cc1", "% Inhibition @ 10 uM": -3.16}
{"smiles": "N#CC1=C(N)OC2=C(C(=O)CCC2)C1c1ccc(F)cc1F", "note": "(stereo not shown)", "% Inhibition @ 10 uM": -3.72}
{"smiles": "O[C@]12CCCC[C@@H]1[C@@H](c1ccc(F)cc1)NCC2", "% Inhibition @ 10 uM": 7.92}
{"smiles": "Cc1nn(-c2ccccc2)c2c1C(c1ccc(F)cc1)C(C#N)=C(N)O2", "note": "(stereo not shown)", "% Inhibition @ 10 uM": -0.996}
{"smiles": "CCC1CCc2c(sc(NC(=O)c3ccc4c(c3)OCO4)c2C(N)=O)C1", "note": "(stereo not shown)", "% Inhibition @ 10 uM": -1.61}
{"smiles": "COc1cc2ccccc2cc1C(=O)Nc1cccc(S(N)(=O)=O)c1", "% Inhibition @ 10 uM": 0.751}
{"smiles": "Cc1ccc(-n2cnc3cc(C(=O)NC4CCCC4)ccc32)cc1Cl", "% Inhibition @ 10 uM": -0.256}
{"smiles": "CC/C(=N/OC(=O)c1ccc(OC)cc1)C(=O)c1cccs1", "% Inhibition @ 10 uM": -1.4}
{"smiles": "O=C(Cn1cnc2onc(-c3ccc(F)cc3)c2c1=O)N1CCC(N2CCCCC2)CC1", "% Inhibition @ 10 uM": -3.05}
{"smiles": "O=C(O)C1CCCN(S(=O)(=O)c2cccc(F)c2)C1", "note": "(stereo not shown)", "% Inhibition @ 10 uM": 2.05}
{"smiles": "Nc1nonc1-c1noc(CCCN2C(=O)c3ccccc3C2=O)n1", "% Inhibition @ 10 uM": -5.6}
{"smiles": "CCCCCC(=O)Nc1nc2nc(C)c(Cl)c(C)n2n1", "% Inhibition @ 10 uM": -3.08}
{"smiles": "O=C(O)CCC(=O)NCc1ccccc1", "% Inhibition @ 10 uM": -6.22}
{"smiles": "O=C(c1cc2n(n1)C(C(F)(F)F)CC(c1ccc(Br)cc1)N2)N1CCCCC1", "note": "(stereo not shown)", "% Inhibition @ 10 uM": -0.0938}
{"smiles": "CN1CCN(CCc2ccccc2)CC1", "% Inhibition @ 10 uM": 0.472}
{"smiles": "Cc1ccc(S(=O)(=O)NCC(C)NC(=O)CN2CCCCC2)cc1", "note": "(stereo not shown)", "% Inhibition @ 10 uM": -3.13}
{"smiles": "COC(=O)N1CCN(c2ccc([N+](=O)[O-])cc2)CC1", "% Inhibition @ 10 uM": 0.708}
{"smiles": "CCCn1c(=N)n(CC(=O)OC)c2ccccc21", "% Inhibition @ 10 uM": -4.98}
{"smiles": "COC(=O)c1cc(S(=O)(=O)NCCCN2CCN(Cc3ccccc3)CC2)cn1C", "% Inhibition @ 10 uM": 2.29}
